# Results: a collection of fitness landscapes (doi:10.1126/science.1257360)
# The list shows a part of the results.
# B1: PhoQ; a variant is named by its letters at X, in order, P23837 (parent)
# chain: MKKLLRLFFPLSLRVRFLLATAAVVLVLSLAYGMVALIGYSVSFDKTTFRLLRGESNLFYTLAKWENNKLHVELPENIDKQSPTMTLIYDENGQLLWAQRDVPWLMKMIQPDWLKSNGFHEIEADVNDTSLLLSGDHSIQQQLQEVREDDDDAEMTHSVAVNVYPATSRMPKLTIVVVDTIPVELKSSYMVWSWFIYVLSANLLLVIPLLWVAAWWSLRPIEALAKEVRELEEHNRELLNPATTRELTSLVRNLNRLLKSERERYDKYRTTLTDLTHSLKTPLXXLQXXLRSLRSEKMSVSDAEPVMLEQISRISQQIGYYLHRASMRGGTLLSRELHPVAPLLDNLTSALNKVYQRKGVNISLDISPEISFVGEQNDFVEVMGNVLDNACKYCLEFVEISARQTDEHLYIVVEDDGPGIPLSKREVIFDRGQRVDTLRPGQGVGLAVAREITEQYEGKIVAGESMLGGARMEVIFGRQHSAPKDE
# Variants of: B1
# Assay: enrichment ratio after two sorts for PhoP signalling (ratio (wild type AVST 3.29)); higher = more functional
# Conditions: with PhoP (E. coli)
row,Variant,enrichment ratio
1,WSRS,≤ 0.25
2,TWCP,≤ 0.25
3,TGGA,9.44
4,SQLA,11.7
5,FMDK,≤ 0.25
6,MPKH,≤ 0.25
7,YQSC,≤ 0.25
8,FHEK,≤ 0.25
9,HPDE,≤ 0.25
10,FANL,≤ 0.25
11,NEAI,≤ 0.25
12,YVMC,0.38
13,PTMN,≤ 0.25
14,YYMH,≤ 0.25
15,KCDI,≤ 0.25
16,DLVD,≤ 0.25
17,TTYR,≤ 0.25
18,RGVF,≤ 0.25
19,MGCF,0.253
20,GDYR,≤ 0.25
21,VYPL,≤ 0.25
22,NGHG,≤ 0.25
23,RAYV,≤ 0.25
24,YSGG,≤ 0.25
25,TRKH,≤ 0.25
26,TAKM,≤ 0.25

row,Variant,enrichment ratio
1,DPQE,≤ 0.25
2,TKWY,12.9
3,WKWH,≤ 0.25
4,TWPQ,≤ 0.25
5,KSKL,≤ 0.25
6,FAGC,≤ 0.25
7,VWAS,≤ 0.25
8,RNRS,≤ 0.25
9,KKNI,≤ 0.25
10,PRNM,≤ 0.25
11,NAYP,≤ 0.25
12,LMKA,≤ 0.25
13,VRRY,≤ 0.25
14,FADN,≤ 0.25
15,EMFC,≤ 0.25
16,TIQK,5.16
17,VYLT,≤ 0.25
18,FCSE,≤ 0.25
19,HWCV,≤ 0.25
20,FINS,≤ 0.25
21,MDIP,≤ 0.25
22,LWIH,≤ 0.25
23,ACWP,≤ 0.25
24,TQHL,7.82
25,FEYW,≤ 0.25
26,VPQF,≤ 0.25

row,Variant,enrichment ratio
1,VFSN,≤ 0.25
2,GFTN,≤ 0.25
3,FAVY,≤ 0.25
4,WDTC,≤ 0.25
5,HMYH,≤ 0.25
6,LWQN,≤ 0.25
7,VSAS,≤ 0.25
8,DGCK,≤ 0.25
9,QAIR,≤ 0.25
10,PFIC,≤ 0.25
11,NVRE,≤ 0.25
12,FQYE,≤ 0.25
13,DYGN,≤ 0.25
14,SKVK,≤ 0.25
15,HIIP,≤ 0.25
16,IDDQ,≤ 0.25
17,LRVY,≤ 0.25
18,FWKR,≤ 0.25
19,DRVY,≤ 0.25
20,WNAF,≤ 0.25
21,LTMN,≤ 0.25
22,IAPE,≤ 0.25
23,VHEV,≤ 0.25
24,NVFL,≤ 0.25
25,LKQW,≤ 0.25
26,KYFS,≤ 0.25

row,Variant,enrichment ratio
1,HVRH,≤ 0.25
2,LMQT,≤ 0.25
3,YFEC,≤ 0.25
4,QSYE,1.41
5,EWFR,≤ 0.25
6,EKHS,≤ 0.25
7,SCNH,3.51
8,GECQ,17
9,GNAY,≤ 0.25
10,DYSV,≤ 0.25
11,TYVW,≤ 0.25
12,NMVG,≤ 0.25
13,PSNW,≤ 0.25
14,FDDT,≤ 0.25
15,AGCS,10.8
16,DLHP,≤ 0.25
17,TDCQ,20.3
18,WYHY,0.671
19,KFDP,≤ 0.25
20,PPIH,≤ 0.25
21,RVWI,≤ 0.25
22,YRNV,≤ 0.25
23,IGIG,≤ 0.25
24,HDIH,≤ 0.25
25,MDNI,≤ 0.25
26,GWTD,≤ 0.25

row,Variant,enrichment ratio
1,RALQ,≤ 0.25
2,MRYK,≤ 0.25
3,MITH,≤ 0.25
4,FTIA,≤ 0.25
5,TVKH,≤ 0.25
6,SRFP,≤ 0.25
7,IGSA,≤ 0.25
8,STWF,≤ 0.25
9,CISQ,55.8
10,WDMR,≤ 0.25
11,HENC,≤ 0.25
12,IKCD,≤ 0.25
13,WCLL,0.851
14,HHSQ,≤ 0.25
15,QSDP,≤ 0.25
16,SYKH,≤ 0.25
17,KNGR,≤ 0.25
18,QNKC,≤ 0.25
19,IDVQ,≤ 0.25
20,DIFK,≤ 0.25
21,LMRK,≤ 0.25
22,ESEL,≤ 0.25
23,AGFI,≤ 0.25
24,QYSC,≤ 0.25
25,PFNW,≤ 0.25
26,VFWA,≤ 0.25

row,Variant,enrichment ratio
1,CTPH,≤ 0.25
2,IIVH,≤ 0.25
3,GRQG,≤ 0.25
4,NAQN,≤ 0.25
5,LPSY,≤ 0.25
6,MATN,≤ 0.25
7,YCDP,≤ 0.25
8,ALVT,1.4
9,RHDT,≤ 0.25
10,EQLC,≤ 0.25
11,NVNF,≤ 0.25
12,LEWI,2.42
13,GAGK,≤ 0.25
14,TWLV,≤ 0.25
15,FDSE,≤ 0.25
16,KHVI,≤ 0.25
17,QNTT,≤ 0.25
18,MERR,≤ 0.25
19,EEFV,≤ 0.25
20,HQML,≤ 0.25
21,RTYM,≤ 0.25
22,NLEK,≤ 0.25
23,NRNN,≤ 0.25
